B1: GACCGGG (DNA:RNA)
RNA: GGGAGACCGGAAUUCAGAUUGUCCGACCGGGUUAAAUCCCGUCGUAGCCACCA
DNA 1: CAATCTGAATTCCGGTCTCCC
DNA 2: TGGTGGCTACGACGGGATT
B2: UGUGCCU (DNA:RNA)
RNA: GGGAGACCGGAAUUCAGAUUGUCCUGUGCCUUUAAAUCCCGUCGUAGCCACCA
DNA 1: CAATCTGAATTCCGGTCTCCC
DNA 2: TGGTGGCTACGACGGGATT
B3: AAACCAA (DNA:RNA)
RNA: B1 RNA with G25A, C27A, G29C, G30A, G31A
DNA 1: CAATCTGAATTCCGGTCTCCC
DNA 2: TGGTGGCTACGACGGGATT
B4: CGCUCUU (DNA:RNA)
RNA: B2 RNA with U25C, U27C, G28U, C30U
DNA 1: CAATCTGAATTCCGGTCTCCC
DNA 2: TGGTGGCTACGACGGGATT
B5: CACAUCA (DNA:RNA)
RNA: B1 RNA with G25C, C28A, G29U, G30C, G31A
DNA 1: CAATCTGAATTCCGGTCTCCC
DNA 2: TGGTGGCTACGACGGGATT
B6: CGCAUUG (DNA:RNA)
RNA: B1 RNA with G25C, A26G, C28A, G29U, G30U
DNA 1: CAATCTGAATTCCGGTCTCCC
DNA 2: TGGTGGCTACGACGGGATT
B7: AGGUGGG (DNA:RNA)
RNA: B1 RNA with G25A, A26G, C27G, C28U
DNA 1: CAATCTGAATTCCGGTCTCCC
DNA 2: TGGTGGCTACGACGGGATT
B8: GCUUUAG (DNA:RNA)
RNA: B1 RNA with A26C, C27U, C28U, G29U, G30A
DNA 1: CAATCTGAATTCCGGTCTCCC
DNA 2: TGGTGGCTACGACGGGATT
B9: CCAAUAC (DNA:RNA)
RNA: GGGAGACCGGAAUUCAGAUUGUCCCCAAUACUUAAAUCCCGUCGUAGCCACCA
DNA 1: CAATCTGAATTCCGGTCTCCC
DNA 2: TGGTGGCTACGACGGGATT
B10: CGACGUA (DNA:RNA)
RNA: B9 RNA with C26G, A28C, U29G, A30U, C31A
DNA 1: CAATCTGAATTCCGGTCTCCC
DNA 2: TGGTGGCTACGACGGGATT
B11: AAAGUGG (DNA:RNA)
RNA: B1 RNA with G25A, C27A, C28G, G29U
DNA 1: CAATCTGAATTCCGGTCTCCC
DNA 2: TGGTGGCTACGACGGGATT
B12: GGCUUUG (DNA:RNA)
RNA: B1 RNA with A26G, C28U, G29U, G30U
DNA 1: CAATCTGAATTCCGGTCTCCC
DNA 2: TGGTGGCTACGACGGGATT
B13: UCGAAAA (DNA:RNA)
RNA: B9 RNA with C25U, A27G, U29A, C31A
DNA 1: CAATCTGAATTCCGGTCTCCC
DNA 2: TGGTGGCTACGACGGGATT
B14: CAGAGUG (DNA:RNA)
RNA: B1 RNA with G25C, C27G, C28A, G30U
DNA 1: CAATCTGAATTCCGGTCTCCC
DNA 2: TGGTGGCTACGACGGGATT
B15: UAACGUG (DNA:RNA)
RNA: B1 RNA with G25U, C27A, G30U
DNA 1: CAATCTGAATTCCGGTCTCCC
DNA 2: TGGTGGCTACGACGGGATT
B16: GCGAGCU (DNA:RNA)
RNA: B9 RNA with C25G, A27G, U29G, A30C, C31U
DNA 1: CAATCTGAATTCCGGTCTCCC
DNA 2: TGGTGGCTACGACGGGATT
B17: CAUGUUU (DNA:RNA)
RNA: B2 RNA with U25C, G26A, C29U, C30U
DNA 1: CAATCTGAATTCCGGTCTCCC
DNA 2: TGGTGGCTACGACGGGATT
B18: ACCGUAG (DNA:RNA)
RNA: B9 RNA with C25A, A27C, A28G, C31G
DNA 1: CAATCTGAATTCCGGTCTCCC
DNA 2: TGGTGGCTACGACGGGATT
B19: UUUAAAC (DNA:RNA)
RNA: B9 RNA with C25U, C26U, A27U, U29A
DNA 1: CAATCTGAATTCCGGTCTCCC
DNA 2: TGGTGGCTACGACGGGATT
B20: AAUAGUG (DNA:RNA)
RNA: B1 RNA with G25A, C27U, C28A, G30U
DNA 1: CAATCTGAATTCCGGTCTCCC
DNA 2: TGGTGGCTACGACGGGATT
B21: GCAAAGA (DNA:RNA)
RNA: B9 RNA with C25G, U29A, A30G, C31A
DNA 1: CAATCTGAATTCCGGTCTCCC
DNA 2: TGGTGGCTACGACGGGATT
B22: GCUUAGU (DNA:RNA)
RNA: B1 RNA with A26C, C27U, C28U, G29A, G31U
DNA 1: CAATCTGAATTCCGGTCTCCC
DNA 2: TGGTGGCTACGACGGGATT
B23: AUUCCAC (DNA:RNA)
RNA: B9 RNA with C25A, C26U, A27U, A28C, U29C
DNA 1: CAATCTGAATTCCGGTCTCCC
DNA 2: TGGTGGCTACGACGGGATT
B24: UGGUCUU (DNA:RNA)
RNA: B2 RNA with U27G, G28U, C30U
DNA 1: CAATCTGAATTCCGGTCTCCC
DNA 2: TGGTGGCTACGACGGGATT
B25: GUACGGC (DNA:RNA)
RNA: B1 RNA with A26U, C27A, G31C
DNA 1: CAATCTGAATTCCGGTCTCCC
DNA 2: TGGTGGCTACGACGGGATT
B26: CGCAUCU (DNA:RNA)
RNA: B9 RNA with C26G, A27C, A30C, C31U
DNA 1: CAATCTGAATTCCGGTCTCCC
DNA 2: TGGTGGCTACGACGGGATT
B27: CGCAGAC (DNA:RNA)
RNA: B9 RNA with C26G, A27C, U29G
DNA 1: CAATCTGAATTCCGGTCTCCC
DNA 2: TGGTGGCTACGACGGGATT
B28: CUACGUA (DNA:RNA)
RNA: B9 RNA with C26U, A28C, U29G, A30U, C31A
DNA 1: CAATCTGAATTCCGGTCTCCC
DNA 2: TGGTGGCTACGACGGGATT
B29: CAUGAUG (DNA:RNA)
RNA: B1 RNA with G25C, C27U, C28G, G29A, G30U
DNA 1: CAATCTGAATTCCGGTCTCCC
DNA 2: TGGTGGCTACGACGGGATT
B30: CUCUGAG (DNA:RNA)
RNA: B1 RNA with G25C, A26U, C28U, G30A
DNA 1: CAATCTGAATTCCGGTCTCCC
DNA 2: TGGTGGCTACGACGGGATT
B31: CUCAAUC (DNA:RNA)
RNA: B9 RNA with C26U, A27C, U29A, A30U
DNA 1: CAATCTGAATTCCGGTCTCCC
DNA 2: TGGTGGCTACGACGGGATT

Residue numbers refer to the chain shown, from its start. The list shows a part of the results.

The target of this assay is T1, RBFOX1 RRM (Homo sapiens, UniProt Q9NWB1 109-208).
T1 sequence: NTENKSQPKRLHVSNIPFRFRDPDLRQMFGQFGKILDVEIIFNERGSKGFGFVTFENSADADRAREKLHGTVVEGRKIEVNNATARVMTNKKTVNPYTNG
Nature of the assay: EMSA; HiTS-Eq, 1 nM pool, 10 min; buffer printed only for the single-RNA assays: 10 mM Tris pH 7.5, 150 mM NaCl, 3.4 mM EDTA, 0.001% NP-40, 30 C. To be noted: tags: His6 N-terminal (pET28a); label: 5' 32P. A digest of the protocol:
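Relative association constants, normalised to the cognate motif, were derived by comparing read counts of each RNA species with those of the control reaction. The RNA sequenced was the free fraction, separated by 8% native PAGE after a 10 min equilibration in 50 µL of 1 nM 5′-radiolabelled RNA (7 randomized nucleotides) with increasing concentrations of purified wild-type or mutant RbFox RRM.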
Take B1: the binding signal is 0.0106 KA relative to UGCAUGU. Under B2 stands 0.0188 KA relative to UGCAUGU; under B3, 0.000302 KA relative to UGCAUGU; under B4, 0.00912 KA relative to UGCAUGU.

As for B5, the binding signal was 0.00161 KA relative to UGCAUGU. Under B6 stands 0.0131 KA relative to UGCAUGU. For the molecule B7, the binding signal was 0.0126 KA relative to UGCAUGU. Next, B8: 0.0126 KA relative to UGCAUGU; B9: 0.00204 KA relative to UGCAUGU. Under B10 stands 0.00872 KA relative to UGCAUGU; under B11, 0.0114 KA relative to UGCAUGU. Under B12 stands 0.0219 KA relative to UGCAUGU; under B13, 0.00302 KA relative to UGCAUGU; under B14, 0.0145 KA relative to UGCAUGU. For B15, the binding signal is 0.0123 KA relative to UGCAUGU. Next, B16: 0.0186 KA relative to UGCAUGU.

On to B17, for which the binding signal is 0.0086 KA relative to UGCAUGU. Next, B18: 0.00535 KA relative to UGCAUGU. Next, B19: 0.00342 KA relative to UGCAUGU; B20: 0.00787 KA relative to UGCAUGU; B21: 0.00671 KA relative to UGCAUGU. Next, B22: 0.0112 KA relative to UGCAUGU; B23: 0.000512 KA relative to UGCAUGU; B24: 0.0179 KA relative to UGCAUGU. As for B25, the binding signal was 0.0138 KA relative to UGCAUGU. For B26, the binding signal was 0.0129 KA relative to UGCAUGU. With B27, the binding signal is 0.00766 KA relative to UGCAUGU. Next, B28: 0.00487 KA relative to UGCAUGU; B29: 0.0103 KA relative to UGCAUGU.

Take B30: the binding signal was 0.0147 KA relative to UGCAUGU. With B31, the binding signal is 0.00311 KA relative to UGCAUGU.

These data come from PMC9911399, “Two distinct binding modes provide the RNA-binding protein RbFox with extraordinary sequence specificity”.
